{"source": "the supplement of paper PMC3334620", "note": "Over roughly 33,000 sequences, “E-score (-0.5 to 0.5)” has its median near -0.01; the highest 2% begin near 0.26. Some of the results follow.", "data": [{"biological_target": "Ste12 (UniProt P13574)", "experiment": "PBM E-score (8-mer binding enrichment) (E-score (-0.5 to 0.5)); higher = stronger / more preferred TF binding; most listed sequences are background and not binding sites", "details": "protein concentration: 200 nM; construct: GST-DNA-binding domain", "protocol": "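Universal 'all 10-mer' protein binding microarrays (Agilent AMADID 015681) probed with GST-tagged S. cerevisiae TFs (full-length or DBD) made by in vitro transcription/translation (PURExpress), about 100-200 nM. Bound TF was detected with fluorescent anti-GST. Each ungapped 8-mer (which stands for itself and its reverse complement) is scored by the PBM enrichment score (E-score), a modified Wilcoxon-Mann-Whitney statistic from -0.5 to +0.5, computed with the Universal PBM Analysis Suite. Scale: above 0.35 generally sequence-specific binding.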", "values": [{"sequence": "ACTACGGA", "PBM E-score": -0.151}, {"sequence": "ATTCAAGC", "PBM E-score": 0.131}, {"sequence": "TCTGGTCA", "PBM E-score": 0.0678}, {"sequence": "CAATCATA", "PBM E-score": 0.0856}, {"sequence": "TAAGGGCA", "PBM E-score": -0.023}, {"sequence": "ACCAGGGC", "PBM E-score": -0.241}, {"sequence": "ATCGGTAG", "PBM E-score": -0.0427}, {"sequence": "AGGAGTGG", "PBM E-score": -0.0209}, {"sequence": "CACTAGGC", "PBM E-score": -0.0023}, {"sequence": "CACCAAAA", "PBM E-score": 0.216}, {"sequence": "CCAATGGC", "PBM E-score": -0.168}, {"sequence": "AGTCAGCC", "PBM E-score": -0.0536}, {"sequence": "GATAAAAC", "PBM E-score": 0.327}, {"sequence": "TACCCGGA", "PBM E-score": -0.0492}, {"sequence": "CCGAGTCA", "PBM E-score": 0.0594}, {"sequence": "AGCCACGC", "PBM E-score": -0.12}, {"sequence": "CAAGGGCC", "PBM E-score": -0.209}, {"sequence": "ATAGTTTG", "PBM E-score": 0.171}, {"sequence": "AAGTTCCA", "PBM E-score": 0.00201}, {"sequence": "AAAACCCC", "PBM E-score": 0.0914}, {"sequence": "TCTACACA", "PBM E-score": -0.0878}, {"sequence": "AATCCTAG", "PBM E-score": -0.0895}, {"sequence": "GCCTTGAA", "PBM E-score": -0.112}, {"sequence": "GCGGTTTA", "PBM E-score": 0.13}, {"sequence": "ATGCGATA", "PBM E-score": -0.171}, {"sequence": "ATGCGAGG", "PBM E-score": -0.0381}, {"sequence": "CCCGCAGA", "PBM E-score": 0.0537}, {"sequence": "TCCCCCCA", "PBM E-score": -0.228}, {"sequence": "CAAATGAA", "PBM E-score": 0.238}, {"sequence": "AGCTAGAA", "PBM E-score": -0.0198}, {"sequence": "AGCTGAGA", "PBM E-score": -0.0688}, {"sequence": "GGACGACC", "PBM E-score": -0.236}, {"sequence": "CAGCAACG", "PBM E-score": 0.0828}, {"sequence": "AAACGTTC", "PBM E-score": 0.211}, {"sequence": "ATGGCTCC", "PBM E-score": -0.0743}, {"sequence": "CCCGGTCG", "PBM E-score": -0.0926}, {"sequence": "CCGCGACC", "PBM E-score": -0.0436}, {"sequence": "GAGGCTCC", "PBM E-score": 0.0321}, {"sequence": "TAAAGTTA", "PBM E-score": 0.168}, {"sequence": "AAATTGCC", "PBM E-score": 0.0442}, {"sequence": "ACCGTTGC", "PBM E-score": -0.0885}, {"sequence": "TACGGTCA", "PBM E-score": -0.0675}, {"sequence": "AGGTTGCG", "PBM E-score": -0.0546}, {"sequence": "CGAGCTAC", "PBM E-score": -0.0785}, {"sequence": "CATTAATC", "PBM E-score": 0.164}, {"sequence": "GGAGGTCA", "PBM E-score": -0.171}, {"sequence": "AGGACCAT", "PBM E-score": -0.258}, {"sequence": "GATCATAA", "PBM E-score": 0.0311}, {"sequence": "AAACATAC", "PBM E-score": 0.241}, {"sequence": "AGTCCTAC", "PBM E-score": -0.239}, {"sequence": "ATGCGATC", "PBM E-score": -0.0459}, {"sequence": "CCTACGGC", "PBM E-score": -0.216}, {"sequence": "CACGACTG", "PBM E-score": -0.0339}, {"sequence": "TCGCGGCA", "PBM E-score": -0.122}, {"sequence": "ACCATACT", "PBM E-score": 0.0935}, {"sequence": "CGACTCCC", "PBM E-score": -0.0558}, {"sequence": "AATTATAA", "PBM E-score": 0.144}, {"sequence": "TACCTTGA", "PBM E-score": 0.0945}, {"sequence": "ATACCGAT", "PBM E-score": -0.123}, {"sequence": "TAAGAAGA", "PBM E-score": 0.0379}, {"sequence": "AAAGATGC", "PBM E-score": 0.105}, {"sequence": "ATGAAAGG", "PBM E-score": 0.0401}, {"sequence": "GCGAACCA", "PBM E-score": -0.0603}, {"sequence": "CCACGCAG", "PBM E-score": -0.0584}, {"sequence": "GGAGCCTA", "PBM E-score": -0.0584}, {"sequence": "CATAAGAA", "PBM E-score": 0.22}, {"sequence": "GAGGCGCA", "PBM E-score": -0.0727}, {"sequence": "AAGTGCGC", "PBM E-score": 0.0467}, {"sequence": "GTATAAAC", "PBM E-score": 0.184}, {"sequence": "GAAGACCC", "PBM E-score": -0.163}, {"sequence": "TAAATGGA", "PBM E-score": 0.0785}, {"sequence": "CCCAAATA", "PBM E-score": 0.106}, {"sequence": "CTAATAGC", "PBM E-score": -0.27}, {"sequence": "AAATAGGC", "PBM E-score": 0.104}, {"sequence": "ATGTCAAG", "PBM E-score": 0.0511}, {"sequence": "AGTATGGG", "PBM E-score": -0.0937}, {"sequence": "ATAAGAGA", "PBM E-score": 0.212}, {"sequence": "GTGAAATA", "PBM E-score": 0.169}, {"sequence": "AACTTCAA", "PBM E-score": 0.0648}, {"sequence": "ATAAAACC", "PBM E-score": 0.294}, {"sequence": "CTACGCGA", "PBM E-score": -0.165}, {"sequence": "ATACATAG", "PBM E-score": 0.0394}, {"sequence": "CATGACAG", "PBM E-score": 0.00241}, {"sequence": "AAGCGAGC", "PBM E-score": -0.0151}, {"sequence": "TGGACCCA", "PBM E-score": -0.115}, {"sequence": "AACCAATC", "PBM E-score": 0.259}, {"sequence": "GCAAGCGC", "PBM E-score": -0.0054}, {"sequence": "AAATGAGT", "PBM E-score": 0.0197}, {"sequence": "ACGAAAGT", "PBM E-score": 0.143}, {"sequence": "GGACACCC", "PBM E-score": -0.24}, {"sequence": "GGAAAGTA", "PBM E-score": 0.146}, {"sequence": "AACTGTGA", "PBM E-score": 0.135}, {"sequence": "CCCGTCAG", "PBM E-score": -0.0481}, {"sequence": "ACCCCTCA", "PBM E-score": 0.0822}, {"sequence": "TGACAAAA", "PBM E-score": 0.192}, {"sequence": "TGCGCCCA", "PBM E-score": -0.0421}, {"sequence": "TCACGGGA", "PBM E-score": -0.00635}, {"sequence": "AGATACAT", "PBM E-score": 0.00257}, {"sequence": "CATCGCAA", "PBM E-score": -0.117}, {"sequence": "GGACAACA", "PBM E-score": -0.152}, {"sequence": "ACCTTCGA", "PBM E-score": -0.0218}, {"sequence": "ACACGACT", "PBM E-score": -0.00217}, {"sequence": "GAACCTGA", "PBM E-score": 0.176}, {"sequence": "CAGCTTAA", "PBM E-score": -0.148}, {"sequence": "CCAAATTC", "PBM E-score": 0.0956}, {"sequence": "ATTGTAGG", "PBM E-score": 0.166}, {"sequence": "CCCTGGAG", "PBM E-score": -0.00232}, {"sequence": "AGGGGACA", "PBM E-score": -0.0929}, {"sequence": "CTATATTA", "PBM E-score": 0.159}, {"sequence": "ATGACCCA", "PBM E-score": -0.181}, {"sequence": "CCCATAGC", "PBM E-score": -0.0521}, {"sequence": "CCTACCTC", "PBM E-score": 0.0745}, {"sequence": "CTACTGAA", "PBM E-score": 0.125}, {"sequence": "TACTTCAA", "PBM E-score": 0.0645}, {"sequence": "CGGGCAAG", "PBM E-score": -0.0454}, {"sequence": "GTCGGGAA", "PBM E-score": 0.126}, {"sequence": "CCCCCGTA", "PBM E-score": -0.262}, {"sequence": "GGTGGCAA", "PBM E-score": -0.151}, {"sequence": "AGAGTTGG", "PBM E-score": 0.0179}, {"sequence": "CAACGTAA", "PBM E-score": 0.0359}, {"sequence": "ATAATTGC", "PBM E-score": 0.112}, {"sequence": "CGATAAGA", "PBM E-score": -0.083}, {"sequence": "CGTCTGAG", "PBM E-score": -0.11}, {"sequence": "CAAGGTAC", "PBM E-score": -0.00631}, {"sequence": "CATGTCTC", "PBM E-score": 0.0391}, {"sequence": "CGTTCATC", "PBM E-score": 0.0551}, {"sequence": "ATTACAGA", "PBM E-score": 0.238}, {"sequence": "AAGAAGTG", "PBM E-score": 0.166}, {"sequence": "ATACGTAC", "PBM E-score": -0.0302}, {"sequence": "GGGCGTAA", "PBM E-score": -0.0124}, {"sequence": "CTGGCCTC", "PBM E-score": -0.0475}, {"sequence": "CCTCTAAG", "PBM E-score": -0.0235}, {"sequence": "CCTGAACA", "PBM E-score": -0.0688}, {"sequence": "GAGCCCAC", "PBM E-score": -0.0321}, {"sequence": "ACGGTGGA", "PBM E-score": -0.127}, {"sequence": "CCTAAGTC", "PBM E-score": -0.0648}, {"sequence": "AGTGAAAT", "PBM E-score": 0.0994}, {"sequence": "GACTTCTA", "PBM E-score": -0.0275}, {"sequence": "AGGCAGAC", "PBM E-score": -0.104}, {"sequence": "ACTCGACT", "PBM E-score": 0.0162}, {"sequence": "ACTATAGG", "PBM E-score": -0.174}, {"sequence": "CGGGGGAC", "PBM E-score": -0.133}, {"sequence": "CAAAGTAG", "PBM E-score": 0.0544}, {"sequence": "AATCTCCA", "PBM E-score": -0.184}, {"sequence": "CATTGGAA", "PBM E-score": 0.062}, {"sequence": "ACCATCAG", "PBM E-score": -0.0967}, {"sequence": "ACTTCACC", "PBM E-score": -0.0192}, {"sequence": "AGCTTATA", "PBM E-score": -0.162}, {"sequence": "CCCTGAGC", "PBM E-score": 0.0456}, {"sequence": "CCATATTA", "PBM E-score": 0.198}, {"sequence": "TAGTGTAA", "PBM E-score": 0.183}, {"sequence": "TATGCCCA", "PBM E-score": -0.0781}, {"sequence": "AAATGCAC", "PBM E-score": -0.00999}, {"sequence": "ATCAAGTG", "PBM E-score": -0.0201}, {"sequence": "GAGATAGA", "PBM E-score": -0.0729}, {"sequence": "TCCATGGA", "PBM E-score": -0.0177}, {"sequence": "GGCCTCTA", "PBM E-score": -0.338}, {"sequence": "ACCTGCTG", "PBM E-score": 0.103}, {"sequence": "AAGGAAGA", "PBM E-score": -0.0303}, {"sequence": "AAACCCGA", "PBM E-score": 0.336}, {"sequence": "AGGCATGC", "PBM E-score": -0.0768}, {"sequence": "CGCGAGAC", "PBM E-score": 0.0627}, {"sequence": "CCCATGTA", "PBM E-score": -0.0798}, {"sequence": "AAGTGTAC", "PBM E-score": -0.152}, {"sequence": "GGTTGAAA", "PBM E-score": 0.292}, {"sequence": "GTGATTGA", "PBM E-score": -0.00894}, {"sequence": "CGCAAACC", "PBM E-score": 0.0209}, {"sequence": "AGGAGTTC", "PBM E-score": -0.22}, {"sequence": "AACTTCAG", "PBM E-score": -0.0235}, {"sequence": "GCTGCATA", "PBM E-score": -0.114}, {"sequence": "GATCATGA", "PBM E-score": 0.152}, {"sequence": "CTCATCAC", "PBM E-score": 0.0646}]}]}
